# Whole data set: some 33,000 sequences, median “E-score (-0.5 to 0.5)” near -0.011, cut for the highest 2% near 0.28. Some of the results follow.
# Molecular target: T1, Gcr1 (UniProt P07261)
# T1 sequence: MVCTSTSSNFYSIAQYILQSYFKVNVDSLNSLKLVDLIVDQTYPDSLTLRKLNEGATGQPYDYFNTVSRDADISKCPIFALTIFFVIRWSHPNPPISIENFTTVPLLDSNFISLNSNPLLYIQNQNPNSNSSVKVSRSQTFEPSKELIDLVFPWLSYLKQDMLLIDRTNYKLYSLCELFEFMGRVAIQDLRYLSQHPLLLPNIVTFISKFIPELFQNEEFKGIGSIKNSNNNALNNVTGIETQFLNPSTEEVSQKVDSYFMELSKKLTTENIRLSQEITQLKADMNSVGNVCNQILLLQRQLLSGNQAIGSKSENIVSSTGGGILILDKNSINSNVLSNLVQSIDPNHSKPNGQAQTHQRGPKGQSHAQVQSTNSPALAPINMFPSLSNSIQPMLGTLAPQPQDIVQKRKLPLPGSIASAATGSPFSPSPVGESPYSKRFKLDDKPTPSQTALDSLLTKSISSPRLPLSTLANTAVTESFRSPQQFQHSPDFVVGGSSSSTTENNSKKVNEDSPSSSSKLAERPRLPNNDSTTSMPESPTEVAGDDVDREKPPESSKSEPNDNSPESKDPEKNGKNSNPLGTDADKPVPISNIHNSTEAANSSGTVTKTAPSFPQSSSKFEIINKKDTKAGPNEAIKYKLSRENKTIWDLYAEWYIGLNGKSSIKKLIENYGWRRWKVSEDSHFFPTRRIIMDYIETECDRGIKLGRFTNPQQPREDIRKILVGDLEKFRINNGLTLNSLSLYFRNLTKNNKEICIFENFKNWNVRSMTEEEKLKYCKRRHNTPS
# Test: PBM E-score (8-mer binding enrichment) (E-score (-0.5 to 0.5)); higher = stronger / more preferred TF binding; most listed sequences are background and not binding sites
# Settings: protein concentration: 100 nM; construct: GST-full length
# In short: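 Detection of bound protein used fluorescent anti-GST, with scans normalised by masliner. The proteins were GST-tagged yeast transcription factors applied at about 100-200 nM to universal all-10-mer Agilent arrays made double-stranded by primer extension. Each ungapped eight-base word, pooled with its reverse complement, was scored with an E-score from the Universal PBM Analysis Suite.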
row,Sequence,PBM E-score
1,ACAAACAG,-0.0378
2,AGCCGACT,0.101
3,AGCGGAGG,-0.0972
4,CTTGGCTC,0.00348
5,AACCTATC,0.0326
6,AAAGCTCT,-0.192
7,ACGAAGGG,-0.127
8,CCGTCACA,-0.0656
9,TACTTTCA,0.00431
10,CTTACATA,-0.0232
11,CAATCGTC,-0.185
12,AGATACCG,0.239
13,ACGTAGGC,0.0527
14,GGCGTTAC,-0.0932
15,ACCTTAGG,0.0879
16,CCCTACTC,-0.0821
17,AGTGACAC,-0.0357
18,AATCTACA,0.12
19,GAATCACA,-0.0739
20,CCCCCTTA,-0.18
21,AGCTTGAC,-0.0336
22,GGGCCACA,-0.0384
23,CCGTCGTC,-0.167
24,ATTCGCGC,-0.102
25,CCGCGCAG,-0.219

row,Sequence,PBM E-score
1,CCGTATCG,0.0996
2,CGCTTAAC,0.111
3,CAGACGAG,0.0723
4,CGCAGACG,-0.098
5,AGTCCTCA,-0.104
6,ATCCTGCA,0.152
7,CAAGTACG,-0.0508
8,CATAGGTC,-0.0679
9,GGGCCCCA,0.226
10,AGAAGCCC,0.386
11,AAGGTCCA,-0.0929
12,GTGTTGAA,-0.0892
13,ATTGAATG,-0.0928
14,GACCGATC,-0.167
15,ATTACTCA,-0.13
16,ACTATGCC,-0.0755
17,AGTACTAT,-0.0772
18,CCAAATGC,0.128
19,AAAAGTGG,0.381
20,ACAATGTC,-0.0997
21,AACACTCT,-0.0466
22,CCCTGCGG,-0.124
23,AGCCAGTG,0.0186
24,AAGCGTGT,0.00535
25,AGTTGTTA,0.0638

row,Sequence,PBM E-score
1,ATCCGCCG,0.103
2,CGCTATAA,0.128
3,TCGGGTCA,-0.0362
4,CACTTGAA,0.094
5,AAACGCTT,0.0018
6,TCTTAACA,0.0545
7,CGCATAGA,-0.00804
8,CGAGACGC,0.131
9,AATACATT,0.0975
10,AGTTAACC,-0.232
11,AGGAGCAT,-0.0673
12,CAATGCAG,0.0715
13,CTTACAGA,0.0818
14,AGCGCAGC,-0.141
15,AGATAAGA,0.208
16,CTAATCGA,-0.0752
17,ACTCTGAA,0.0345
18,AATACCGA,0.0609
19,CGTGACTA,-0.109
20,ACAGGCAC,-0.0443
21,CAGTCAAA,-0.138
22,CCCGATGA,-0.0833
23,TATGGCGA,-0.0402
24,ATAGAGAA,-0.111
25,ACCCCACT,0.129

row,Sequence,PBM E-score
1,CATATAAC,-0.133
2,CGGGTTCA,-0.204
3,AGTCCACA,0.0891
4,CACTTCCA,0.312
5,AGCGCCTC,0.103
6,ACAGTATG,-0.0202
7,TCTAGCCA,0.0145
8,CCCTTCGC,-0.0758
9,ACTCCGGG,0.12
10,GGGGATAA,0.0423
11,AAAGCAAC,0.0209
12,AACAGTCG,-0.123
13,AAGCACAG,-0.0841
14,AACATTAT,0.0735
15,CAGATGTA,0.0597
16,AAATGTAT,0.177
17,CAAGCCGA,-0.038
18,GGTCTTCA,-0.162
19,ATCATATC,-0.0313
20,GACAATGA,-0.00202
21,GAGTGCCA,0.0104
22,ATAGAGAT,-0.167
23,GCAGCCGA,0.277
24,GCACGAAA,-0.0486
25,GCGCTGTA,-0.124

row,Sequence,PBM E-score
1,ATTCGTGA,-0.136
2,ACATTGCG,-0.151
3,AACACCCA,-0.0911
4,CGCTACTA,0.127
5,GCCAAGTA,0.123
6,CGCAAAAA,0.167
7,CAAGAATC,0.247
8,TGCTGACA,0.0611
9,AAATATAT,0.152
10,AACAACCG,-0.0918
11,ATCAACGA,0.0103
12,TATAATCA,-0.0344
13,CAGGACAC,-0.0467
14,TGATCTAA,-0.135
15,GTAGAAAA,0.0747
16,CGGATGTA,-0.227
17,AGGAGGCA,0.00383
18,TTGGTAAA,0.177
19,GAATCGCC,0.00157
20,CCCGTGAA,-0.092
21,AGGCTTCC,0.436
22,ACTTACGG,0.0589
23,ATGAGGCC,-0.0192
24,GCTGTGGA,0.0554
25,AAATGGCC,-0.203

row,Sequence,PBM E-score
1,ACAGACGG,-0.12
2,CTTGACTC,0.0413
3,GGTCTGAA,-0.151
4,AGCCGATA,-0.152
5,CAAATTCC,0.0436
6,CCATAGAA,0.152
7,CACGGTTA,0.069
8,CCGGGCCC,0.14
9,AGTACCAA,0.155
10,AGCACGTC,0.134
11,ACGGCGGA,-0.0348
12,CAAAGGGA,-0.206
13,TGCGTTAA,0.124
14,AGTCGTGG,-0.0196
15,GAACAAAC,-0.0101
16,ATACACAC,-0.0453
17,TTACAGAA,0.108
18,GTATCACA,-0.221
19,AACATCAC,-0.0944
20,GGAATCGA,0.141
21,CTAGCAAG,-0.0902
22,GGAGAACA,-0.251
23,CAAACCTG,0.0135
24,AAATCCAA,0.142
25,ATAACTGG,0.131

row,Sequence,PBM E-score
1,GAAGGAGA,-0.0033
2,CAGAGAGA,-0.26
3,CACGTATC,0.0921
4,CAGGGTCA,-0.117
5,ATGGAGGA,-0.11
6,GAGGCCTA,-0.125
7,AGGGCGCA,-0.0301
8,CTGAGCGA,0.0143
9,GGTAAAAC,-0.056
10,ACAATCCG,-0.0948
11,CGGTTTCA,0.0896
12,CCTTGTGA,-0.0583
13,CGCTGCCC,0.164
14,CACAACGA,-0.0328
15,CAAGGTGG,-0.142
16,CGGGGTAG,-0.136
17,AATTATTC,0.136
18,GCAGATTA,0.0499
19,CAGTGCCG,-0.104
20,AAATCGCA,-0.021
21,AGAAATTC,0.127
22,ACCACCAC,0.0845

# Source: the supplement of paper PMC3334620
